Source: the supplement of paper PMC12217912
This is one part of the list. The full chains were built here from the parent and the listed change. Values near 0.05 are background.

B1: TEV protease; numbered along this chain (parent)
chain: MGESLFKGPRDYNPISSSICHLTNESDGHTTSLYGIGFGPFIITNKHLFRRNNGTLVVQSLHGVFKVKDTTTLQQHLVDGRDMIIIRMPKDFPPFPQKLKFREPQREERICLVTTNFQTKSMSSMVSDTSCTFPSGDGIFWKHWIQTKDGQCGSPLVSTRDGFIVGIHSASNFTNTNNYFTSVPKNFMELLTNQEAQQWVSGWRLNADSVLWGGHKVFMVKPEEPFQPVKEATQL

Variants of: B1
Assay: raw area under fraction-flipped curve 0-4 h after induction (AUC4h, not background-subtracted), DNA-recorder readout of cleavage of the substrate (dimensionless); higher = more cleavage of the substrate by the protease variant
Details: temperature: 34 °C; time window: 0-4 h after rhamnose induction
Protocol: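 In vivo DNA recorder in E. coli TOP10(DE3) ΔrhaA at 34 °C. Each TEVp single-site mutant (parent TEVp 0) is paired with a single-site variant of the 7-mer TEVs (canonical ENLYFQ|S). The substrate sits between flexible linkers in a Bxb1-sfGFP-TEVs-SsrA fusion, so cleavage stabilises Bxb1 and speeds flipping of a recombination array, read by NGS. The value is the raw area under the fraction-flipped curve over 0-4 h after rhamnose induction (AUC4h), with ≥20 reads per time point. It is not background-subtracted; inactive controls average about 0.047.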
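Also: Bxb1 expression induced with 0.2% (w/v) L-rhamnose at OD600 near 0.5, cultures sampled hourly, flipped fraction per protease–substrate barcode pair counted by paired-end Illumina sequencing.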

Variant	area with substrate ENLYFQA	area with substrate ENLYFQC	area with substrate ENLYFQD	area with substrate ENLYFQG	area with substrate ENLYFQK	area with substrate ENLYFQL	area with substrate ENLYFQM	area with substrate ENLYFQP	area with substrate ENLYFQR	area with substrate ENLYFQS	area with substrate ENLYFQT	area with substrate ENLYFQV	area with substrate ENLYFQW	area with substrate ENLYFQY	area with substrate ENLYFQE	area with substrate ENLYFQF	area with substrate ENLYFQH	area with substrate ENLYFQI	area with substrate ENLYFQN	area with substrate ENLYFQQ
MGESLFKGPRDYNPISSSICHLTNESDGHTTCLYGIGFGPFIITNKHLFRRNNGTLVVQSLHGVFKVKDTTTLQQHLVDGRDMIIIRMPKDFPPFPQKLKFREPQREERICLVTTNFQTKSMSSMVSDTSCTFPSGDGIFWKHWIQTKDGQCGSPLVSTRDGFIVGIHSASNFTNTNNYFTSVPKNFMELLTNQEAQQWVSGWRLNADSVLWGGHKVFMVKPEEPFQPVKEATQL [S32C]	0.0636	0.064	0.0788	0.109	0.0848	0.0639	0.0914	0.059	0.068	0.106	0.0711	0.0557	0.0684	0.0764						
MGESLFKGPRDYNPISSSICHLTNESDGHTTTLYGIGFGPFIITNKHLFRRNNGTLVVQSLHGVFKVKDTTTLQQHLVDGRDMIIIRMPKDFPPFPQKLKFREPQREERICLVTTNFQTKSMSSMVSDTSCTFPSGDGIFWKHWIQTKDGQCGSPLVSTRDGFIVGIHSASNFTNTNNYFTSVPKNFMELLTNQEAQQWVSGWRLNADSVLWGGHKVFMVKPEEPFQPVKEATQL [S32T]	0.103	0.107	0.0822	0.092	0.118	0.054	0.0677	0.0331	0.0536	0.101	0.0941	0.0721	0.0624		0.0514	0.0725	0.0984	0.0604	0.0771	
MGESLFKGPRDYNPISSSICHLTNESDGHTTFLYGIGFGPFIITNKHLFRRNNGTLVVQSLHGVFKVKDTTTLQQHLVDGRDMIIIRMPKDFPPFPQKLKFREPQREERICLVTTNFQTKSMSSMVSDTSCTFPSGDGIFWKHWIQTKDGQCGSPLVSTRDGFIVGIHSASNFTNTNNYFTSVPKNFMELLTNQEAQQWVSGWRLNADSVLWGGHKVFMVKPEEPFQPVKEATQL [S32F]	0.105	0.0901	0.0674	0.0997	0.0514	0.0588			0.0568	0.0938	0.0617		0.0573	0.087		0.036	0.0787	0.0565	0.071	
MGESLFKGPRDYNPISSSICHLTNESDGHTTVLYGIGFGPFIITNKHLFRRNNGTLVVQSLHGVFKVKDTTTLQQHLVDGRDMIIIRMPKDFPPFPQKLKFREPQREERICLVTTNFQTKSMSSMVSDTSCTFPSGDGIFWKHWIQTKDGQCGSPLVSTRDGFIVGIHSASNFTNTNNYFTSVPKNFMELLTNQEAQQWVSGWRLNADSVLWGGHKVFMVKPEEPFQPVKEATQL [S32V]	0.0831	0.119		0.0881	0.0635	0.0586	0.0768		0.0545	0.0929	0.0689	0.0543	0.0527	0.0708			0.0699	0.0625	0.0984	
MGESLFKGPRDYNPISSSICHLTNESDGHTTSLYGPGFGPFIITNKHLFRRNNGTLVVQSLHGVFKVKDTTTLQQHLVDGRDMIIIRMPKDFPPFPQKLKFREPQREERICLVTTNFQTKSMSSMVSDTSCTFPSGDGIFWKHWIQTKDGQCGSPLVSTRDGFIVGIHSASNFTNTNNYFTSVPKNFMELLTNQEAQQWVSGWRLNADSVLWGGHKVFMVKPEEPFQPVKEATQL [I36P]	0.0496	0.0372		0.0445	0.0386	0.0423	0.0568	0.0451		0.0411	0.0389	0.0344	0.0426	0.0389		0.0207	0.0446	0.0189	0.0239	
MGESLFKGPRDYNPISSSICHLTNESDGHTTSKYGIGFGPFIITNKHLFRRNNGTLVVQSLHGVFKVKDTTTLQQHLVDGRDMIIIRMPKDFPPFPQKLKFREPQREERICLVTTNFQTKSMSSMVSDTSCTFPSGDGIFWKHWIQTKDGQCGSPLVSTRDGFIVGIHSASNFTNTNNYFTSVPKNFMELLTNQEAQQWVSGWRLNADSVLWGGHKVFMVKPEEPFQPVKEATQL [L33K]	0.0505		0.0552			0.0481		0.0626	0.0587	0.0589		0.0547		0.062	0.0544	0.0531				0.0514
MGESLFKGPRDYNPISSSICHLTNESDGHTTSSYGIGFGPFIITNKHLFRRNNGTLVVQSLHGVFKVKDTTTLQQHLVDGRDMIIIRMPKDFPPFPQKLKFREPQREERICLVTTNFQTKSMSSMVSDTSCTFPSGDGIFWKHWIQTKDGQCGSPLVSTRDGFIVGIHSASNFTNTNNYFTSVPKNFMELLTNQEAQQWVSGWRLNADSVLWGGHKVFMVKPEEPFQPVKEATQL [L33S]	0.0927	0.111	0.0686	0.0814	0.0649	0.0471	0.0534	0.0648	0.0566	0.0931	0.0843	0.0551	0.0562	0.064				0.0686	0.0493	
MGESLFKGPRDYNPISSSICHLTNESDGHTTSLYGIGFGMFIITNKHLFRRNNGTLVVQSLHGVFKVKDTTTLQQHLVDGRDMIIIRMPKDFPPFPQKLKFREPQREERICLVTTNFQTKSMSSMVSDTSCTFPSGDGIFWKHWIQTKDGQCGSPLVSTRDGFIVGIHSASNFTNTNNYFTSVPKNFMELLTNQEAQQWVSGWRLNADSVLWGGHKVFMVKPEEPFQPVKEATQL [P40M]	0.114	0.113	0.0663	0.0945	0.0743	0.0508	0.107		0.0564	0.106	0.0681	0.0545		0.106				0.055	0.0804	
MGESLFKGPRDYNPISSSICHLTNESDGHTTSLYGIGFGWFIITNKHLFRRNNGTLVVQSLHGVFKVKDTTTLQQHLVDGRDMIIIRMPKDFPPFPQKLKFREPQREERICLVTTNFQTKSMSSMVSDTSCTFPSGDGIFWKHWIQTKDGQCGSPLVSTRDGFIVGIHSASNFTNTNNYFTSVPKNFMELLTNQEAQQWVSGWRLNADSVLWGGHKVFMVKPEEPFQPVKEATQL [P40W]	0.0906	0.115		0.0911	0.0571		0.0839	0.0426	0.0494	0.104	0.0517		0.0563				0.0773		0.0869	
MGESLFKGPRDYNPISSSICHLTNESDGHTTSLYGIGFGPDIITNKHLFRRNNGTLVVQSLHGVFKVKDTTTLQQHLVDGRDMIIIRMPKDFPPFPQKLKFREPQREERICLVTTNFQTKSMSSMVSDTSCTFPSGDGIFWKHWIQTKDGQCGSPLVSTRDGFIVGIHSASNFTNTNNYFTSVPKNFMELLTNQEAQQWVSGWRLNADSVLWGGHKVFMVKPEEPFQPVKEATQL [F41D]	0.085	0.0791		0.0665	0.0646		0.0616		0.0505	0.0802		0.0484	0.0669					0.0452	0.0544	0.0496
MGESLFKGPRDYNPISSSICHLTNISDGHTTSLYGIGFGPFIITNKHLFRRNNGTLVVQSLHGVFKVKDTTTLQQHLVDGRDMIIIRMPKDFPPFPQKLKFREPQREERICLVTTNFQTKSMSSMVSDTSCTFPSGDGIFWKHWIQTKDGQCGSPLVSTRDGFIVGIHSASNFTNTNNYFTSVPKNFMELLTNQEAQQWVSGWRLNADSVLWGGHKVFMVKPEEPFQPVKEATQL [E25I]	0.114	0.117		0.12		0.0631	0.0716	0.0592	0.0633	0.0984	0.0655	0.061	0.0718	0.0648	0.0543	0.0561	0.149	0.0696		
MGESLFKGPRDYNPISSSICHLTGESDGHTTSLYGIGFGPFIITNKHLFRRNNGTLVVQSLHGVFKVKDTTTLQQHLVDGRDMIIIRMPKDFPPFPQKLKFREPQREERICLVTTNFQTKSMSSMVSDTSCTFPSGDGIFWKHWIQTKDGQCGSPLVSTRDGFIVGIHSASNFTNTNNYFTSVPKNFMELLTNQEAQQWVSGWRLNADSVLWGGHKVFMVKPEEPFQPVKEATQL [N24G]	0.0733	0.0665	0.0604	0.0639	0.0634	0.0537	0.068	0.0577	0.0601	0.0675	0.0592	0.0691	0.0629	0.064	0.0551	0.052	0.0669	0.0761	0.0324	
MGESLFKGPRDYNPISSSICHLTVESDGHTTSLYGIGFGPFIITNKHLFRRNNGTLVVQSLHGVFKVKDTTTLQQHLVDGRDMIIIRMPKDFPPFPQKLKFREPQREERICLVTTNFQTKSMSSMVSDTSCTFPSGDGIFWKHWIQTKDGQCGSPLVSTRDGFIVGIHSASNFTNTNNYFTSVPKNFMELLTNQEAQQWVSGWRLNADSVLWGGHKVFMVKPEEPFQPVKEATQL [N24V]	0.0711	0.0615	0.0647	0.0676	0.0725	0.0529	0.0771		0.0524	0.0819		0.0281	0.0604	0.0638	0.0524	0.0802	0.0641	0.0629	0.0735	
MGESLFKGPRDYNPISSSICHLTPESDGHTTSLYGIGFGPFIITNKHLFRRNNGTLVVQSLHGVFKVKDTTTLQQHLVDGRDMIIIRMPKDFPPFPQKLKFREPQREERICLVTTNFQTKSMSSMVSDTSCTFPSGDGIFWKHWIQTKDGQCGSPLVSTRDGFIVGIHSASNFTNTNNYFTSVPKNFMELLTNQEAQQWVSGWRLNADSVLWGGHKVFMVKPEEPFQPVKEATQL [N24P]	0.0539	0.0616	0.0562	0.0453	0.0504	0.0588			0.0567	0.059	0.0546	0.0621	0.0546	0.0573		0.0569		0.0454	0.0585	0.065
MGESLFKGPRDYNPISSSICHLTSESDGHTTSLYGIGFGPFIITNKHLFRRNNGTLVVQSLHGVFKVKDTTTLQQHLVDGRDMIIIRMPKDFPPFPQKLKFREPQREERICLVTTNFQTKSMSSMVSDTSCTFPSGDGIFWKHWIQTKDGQCGSPLVSTRDGFIVGIHSASNFTNTNNYFTSVPKNFMELLTNQEAQQWVSGWRLNADSVLWGGHKVFMVKPEEPFQPVKEATQL [N24S]	0.072	0.0697		0.0549		0.06	0.0806		0.0665	0.0766	0.0636	0.0513	0.0725			0.0875	0.067	0.0589	0.0679	
MGESLFKGPRDYNPISSSICHLTNESDGHTTSLLGIGFGPFIITNKHLFRRNNGTLVVQSLHGVFKVKDTTTLQQHLVDGRDMIIIRMPKDFPPFPQKLKFREPQREERICLVTTNFQTKSMSSMVSDTSCTFPSGDGIFWKHWIQTKDGQCGSPLVSTRDGFIVGIHSASNFTNTNNYFTSVPKNFMELLTNQEAQQWVSGWRLNADSVLWGGHKVFMVKPEEPFQPVKEATQL [Y34L]	0.0882	0.113	0.067	0.0977	0.0624	0.0537			0.0707	0.101	0.0604	0.0993	0.0516	0.0621	0.0641			0.0664	0.0669	
MGESLFKGPRDYNPISSSICHLTNESDGHTTSLYGIGFGPFSITNKHLFRRNNGTLVVQSLHGVFKVKDTTTLQQHLVDGRDMIIIRMPKDFPPFPQKLKFREPQREERICLVTTNFQTKSMSSMVSDTSCTFPSGDGIFWKHWIQTKDGQCGSPLVSTRDGFIVGIHSASNFTNTNNYFTSVPKNFMELLTNQEAQQWVSGWRLNADSVLWGGHKVFMVKPEEPFQPVKEATQL [I42S]	0.0578	0.0488	0.0586	0.0574	0.041	0.0463	0.0358	0.0405	0.0467	0.0479	0.0509	0.0529	0.0426	0.0589		0.051	0.0529	0.0435	0.0391	0.0444
